In paper PMC9911399, “Two distinct binding modes provide the RNA-binding protein RbFox with extraordinary sequence specificity” one finds binding signal data, which are given here for nine molecules.

Changes are numbered by the printed parent chain; changes in the protein carry UniProt numbers. The list shows a part of the results.

First the molecules themselves.
T1: RBFOX1 RRM RbFoxmut (Fox-RRM*) (Homo sapiens, UniProt Q9NWB1 109-208, R118D;E147R;N151S;E152T)
T1 sequence: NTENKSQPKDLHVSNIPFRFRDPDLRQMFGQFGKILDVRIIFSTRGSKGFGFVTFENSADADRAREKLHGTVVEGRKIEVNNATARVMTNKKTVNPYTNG

B1: AAAGCGC (DNA:RNA)
RNA: GGGAGACCGGAAUUCAGAUUGUCCAAAGCGCUUAAAUCCCGUCGUAGCCACCA
DNA 1: CAATCTGAATTCCGGTCTCCC
DNA 2: TGGTGGCTACGACGGGATT
B2: AUCUCCA (DNA:RNA)
RNA: B1 RNA with A26U, A27C, G28U, G30C, C31A
DNA 1: CAATCTGAATTCCGGTCTCCC
DNA 2: TGGTGGCTACGACGGGATT
B3: GUACCAG (DNA:RNA)
RNA: B1 RNA with A25G, A26U, G28C, G30A, C31G
DNA 1: CAATCTGAATTCCGGTCTCCC
DNA 2: TGGTGGCTACGACGGGATT
B4: GCCCGUU (DNA:RNA)
RNA: GGGAGACCGGAAUUCAGAUUGUCCGCCCGUUUUAAAUCCCGUCGUAGCCACCA
DNA 1: CAATCTGAATTCCGGTCTCCC
DNA 2: TGGTGGCTACGACGGGATT
B5: GCUAUUC (DNA:RNA)
RNA: B4 RNA with C27U, C28A, G29U, U31C
DNA 1: CAATCTGAATTCCGGTCTCCC
DNA 2: TGGTGGCTACGACGGGATT
B6: CGGACCU (DNA:RNA)
RNA: B1 RNA with A25C, A26G, A27G, G28A, G30C, C31U
DNA 1: CAATCTGAATTCCGGTCTCCC
DNA 2: TGGTGGCTACGACGGGATT
B7: UAAAAAA (DNA:RNA)
RNA: B1 RNA with A25U, G28A, C29A, G30A, C31A
DNA 1: CAATCTGAATTCCGGTCTCCC
DNA 2: TGGTGGCTACGACGGGATT
B8: AACGGGC (DNA:RNA)
RNA: B1 RNA with A27C, C29G
DNA 1: CAATCTGAATTCCGGTCTCCC
DNA 2: TGGTGGCTACGACGGGATT
B9: GUUUGUA (DNA:RNA)
RNA: B4 RNA with C26U, C27U, C28U, U31A
DNA 1: CAATCTGAATTCCGGTCTCCC
DNA 2: TGGTGGCTACGACGGGATT

The test concerns the target T1, RBFOX1 RRM RbFoxmut (Fox-RRM*). As to the kind of experiment: EMSA; HiTS-Eq, 1 nM pool, 10 min; buffer printed only for the single-RNA assays: 10 mM Tris pH 7.5, 150 mM NaCl, 3.4 mM EDTA, 0.001% NP-40, 30 C. The settings on record: tags: His6 N-terminal (pET28a); label: 5' 32P. The essentials: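 Purified RbFox RRM, wild type or mutant, was incubated for 10 min in 50 µL with 1 nM of a 5′-radiolabelled RNA pool carrying 7 randomized nucleotides, whose flanks were annealed to DNA oligonucleotides, over a series of increasing protein concentrations. Unbound RNA was resolved on 8% native PAGE, cut out, reverse-transcribed, barcoded by PCR and sequenced on an Illumina HiSeq 2500. Relative association constants were derived from changes in read counts for each RNA species versus the control reaction and normalised to the cognate motif.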
(In general: In EMSA bound probe runs differently from free probe, usually more slowly.)
With B1, the binding signal was 0.0705 KA relative to UGCAUGU.

Take B2: the binding signal is 0.0926 KA relative to UGCAUGU.

For the molecule B3, the binding signal was 0.115 KA relative to UGCAUGU.

Take B4: the binding signal is 0.087 KA relative to UGCAUGU.

As to B5, the binding signal is 0.0659 KA relative to UGCAUGU.

On to B6, for which the binding signal is 0.0739 KA relative to UGCAUGU.

Turning to B7, the binding signal is 0.0756 KA relative to UGCAUGU.

Consider B8, for which the binding signal was 0.0864 KA relative to UGCAUGU.

For the molecule B9, the binding signal was 0.446 KA relative to UGCAUGU.
